# Experimental data taken from PubChem BioAssay AID1345083 (National Center for Advancing Translational Sciences (NCATS), 2018).
# The campaign covered roughly 94,000 compounds. About 6,200 (6.6%) were called active. The inconclusive results got no clear call from the source; some entries with a clear call stand among them for comparison. The call rests on the fitted dose curve; in most records, active means well fitted inhibition curve with a large enough effect; inconclusive means small, poorly fitted or top-dose-only effect; inactive means flat fitted curve, though single readings scatter. Potencies of inconclusive entries are doubtful fits and often do not repeat.
# Assay: Cytotoxic Profiling in HEK 293 Cell Line of Diverse Libraries Using Quantitative High-Throughput Screening; further: nearly all actives have a fitted effect of over 60% in size
# Conditions: HEK 293 viability, ATP luminescence (CellTiter-Glo), 48-72 h; series mostly up to 115 µM
# Procedure, shortened: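 Viability of HEK 293 cells, plated at 250 cells/well, was judged by cellular ATP after compound treatment for 48 or 72 hr. Luminescence was imaged 10 min after CellTiter-Glo addition at room temperature.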
# Potency means the concentration at half of the fitted maximal effect; tags describe the fitted curve by direction and shape.
row,SMILES,Potency
1,COC(=O)NC1CCN(Cc2cccc(-c3ccc(SC)cc3)c2)CC1,"inconclusive: 50.1 µM [inhibitor, partial curve, poor fit]"
2,COCCNC(=O)C(C)[C@@H]1CC[C@@]2(C)CC[C@H](NC(=O)c3cnccn3)[C@@H](C)[C@@H]2[C@H]1O (some centres not stated),inactive
3,CC(=O)N1CCC(Cc2ccc(C(=O)Nc3ccc(C)cc3)cc2)CC1,"inconclusive: 56.2 µM [inhibitor, partial curve, poor fit]"
4,CO[C@H]1CN(C2CCN(C(=O)CCC3CCCC3)CC2)[C@H]1c1ccncc1,"inconclusive: 100 µM [inhibitor, partial curve, poor fit]"
5,CN(Cc1cccc(N2CCN(C(=O)OC(C)(C)C)CC2)c1F)[S+](C)(=O)[O-],active: 79.4 µM
6,COc1ccc(CNC(=O)c2c(C)noc2-c2cc(OC)cc(OC)c2)cc1,"inconclusive: 89.1 µM [inhibitor, single point]"
7,Cc1ccc(-c2cc3c(=O)n(CCNC(=O)c4ccc5ccccc5n4)ccn3n2)cc1C,inactive
8,COc1ccc(CN2C(=O)[C@@H]3C[C@@H](CN3C3COC3)Oc3ccccc32)cc1,"inconclusive: 126 µM [inhibitor, single point]"
9,CCN1C(=O)CCc2cc(NC(=O)Cc3ccc(OC)c(Cl)c3)ccc21,"inconclusive: 50.1 µM [inhibitor, partial curve, poor fit]"
10,CN1CCC2(C1)CN(Cc1ccccc1)c1ccc(C(=O)NCC[S+](C)(=O)[O-])cc12 (configuration not stated),"inconclusive: 126 µM [inhibitor, partial curve, poor fit]"
11,CN1C(=O)C(CC(=O)N(C)C2CCNCC2)(Cc2ccccc2)c2ccccc21 (configuration not stated),inactive
12,CC1(c2ccccc2)N(Cc2ccccc2)C(=O)OC12CCN(Cc1ccc(O)cc1)CC2 (configuration not stated),"inconclusive: 50.1 µM [inhibitor, partial curve, poor fit]"
13,NC(=O)[C@H](CC1CCCCC1)NC(=O)[C@@H]1CN(C(=O)Nc2ccccc2)CCN1C(=O)C1CCCCC1,"inconclusive: 89.1 µM [inhibitor, single point]"
14,COc1ccc(C(=O)NC2CCN(Cc3cccc(-c4ccccc4OC)c3)CC2)cc1,active: 22.4 µM
15,Cc1ccccc1N1Cc2c(ncnc2N2CCN(Cc3ccccc3)CC2)N(C)CC1=O,"inconclusive: 28.2 µM [inhibitor, full curve]"
16,CNC(=O)[C@@H]1CN(C(=O)c2coc(C)n2)C[C@H]1COC,"inconclusive: 44.7 µM [inhibitor, partial curve, poor fit]"
17,COc1ccc(-c2cc(N3CCC(NC(=O)C4(c5ccccc5)CC4)CC3)n[nH]2)cc1,"inconclusive: 50.1 µM [inhibitor, partial curve, poor fit]"
18,Cn1ncc2c(C(=O)NCc3ccc(F)cc3)cc(-c3ccc(Cl)cc3)nc21,inactive
19,COc1ccc(CN2CCC(C3CCN(C(C)=O)CC3)C2)c(Cl)c1OC (configuration not stated),"inconclusive: 89.1 µM [inhibitor, single point]"
20,CN1C[C@@H](NS(=O)(=O)c2ccc(C#N)cc2)C[C@H]1c1nc(-c2ccc(Cl)cc2)no1,"inconclusive: 35.5 µM [inhibitor, partial curve, poor fit]"
21,CCC(CC)N1CCN(C(=O)c2ccc3c(c2)N(S(C)(=O)=O)CC3)CC1,inactive

row,SMILES,Potency
1,COc1cccc(C(=O)N2CC(Oc3ccccc3-c3nc(-c4ccccc4)no3)C2)c1,active: 20 µM
2,N#Cc1ccc(C(=O)N[C@@H]2CN(Cc3ccccc3)C[C@H]2CO)cc1,"inconclusive: 10 µM [inhibitor, full curve, poor fit]"
3,O=C1NC2(CCCN(Cc3ccsc3)C2)Oc2ccccc21 (configuration not stated),"inconclusive: 126 µM [inhibitor, single point]"
4,CCOc1ccccc1NC(=O)C1CCc2ncc(-c3ccsc3)n2C1 (configuration not stated),"inconclusive: 79.4 µM [inhibitor, partial curve, poor fit]"
5,CCOC(=O)[C@H]1[C@@H](O)C(=O)N(Cc2ccccc2)C12CCN(C(=O)CC(C)(C)C)CC2,"inconclusive: 56.2 µM [inhibitor, partial curve, poor fit]"
6,CCNC(=O)N1CC(n2cc(C(=O)NCCCOC)nn2)C1,inactive
7,CCOCC(=O)N1CCC2(CC1)NCCc1c2[nH]c2ccccc12,"inconclusive: 100 µM [inhibitor, single point]"
8,COc1ccc2nc3n(c2c1)[C@@H](CNC(=O)NC(C)C)COC3,inactive
9,Cn1cc(C(=O)N2CCC3(CC2)CC(=O)N(CCCc2ccccc2)C3)cn1,"inconclusive: 89.1 µM [inhibitor, single point]"
10,Cc1nc2scc(CC(=O)NCCC(C)C)n2c(=O)c1-c1cc(C)n(-c2cc(F)ccc2F)n1,"inconclusive: 79.4 µM [inhibitor, partial curve, poor fit]"
11,COc1cccc(CN2CCOC3CCN(Cc4ccc(F)cc4F)CC3C2=O)c1 (configuration not stated),"inconclusive: 100 µM [inhibitor, partial curve, poor fit]"
12,CN(Cc1cn[nH]c1-c1ccccc1)CC1CCCN(CCc2ccc(F)cc2)C1 (configuration not stated),"inconclusive: 89.1 µM [inhibitor, partial curve, poor fit]"
13,COc1ccccc1OCCNC(=O)c1cc2n(n1)CC(c1ccc(Cl)cc1)OC2 (configuration not stated),"inconclusive: 56.2 µM [inhibitor, partial curve, poor fit]"
14,Cc1noc(C2CC3(CCN(C(=O)CCc4c[nH]c5ccccc45)CC3)CN2C)n1 (configuration not stated),inactive
15,CC(C)c1nncn1C1CCN(S(=O)(=O)c2ccc(Br)cc2)CC1,"inconclusive: 50.1 µM [inhibitor, partial curve, poor fit]"
16,O=C1c2c(nc(COc3ccc(F)cc3F)n2Cc2ccccc2)NCCN1CCOc1ccccc1,active: 44.7 µM
17,COCc1nc(NCCc2nc3ccccc3s2)cc(C2CC(N)C2)n1 (configuration not stated),inactive
18,Cc1ccc(C)c(-c2cc3c(=O)n(CCNC(=O)c4c(F)cccc4Cl)ccn3n2)c1,"inconclusive: 35.5 µM [inhibitor, partial curve, poor fit]"
19,CCN1c2cc(C(=O)Nc3ccc(F)c(Cl)c3)ccc2C(=O)N2CCCCC21 (configuration not stated),active: 39.8 µM
20,O=C(Nc1ccc(Oc2ccccc2)cc1)O[C@@H]1CO[C@H]2[C@@H]1OC[C@@H]2NC(=O)c1ccccn1,"inconclusive: 20 µM [inhibitor, partial curve, poor fit]"
21,COc1cccc(CNC(=O)N[C@@H]2CN(Cc3ccncc3)C[C@H]2CN(C)C)c1,"inconclusive: 89.1 µM [inhibitor, single point]"

row,SMILES,Potency
1,CCc1cccc(NC(=O)c2ccc3c(c2)N(CC)C2CCCCN2C3=O)c1 (configuration not stated),"inconclusive: 35.5 µM [inhibitor, full curve, poor fit]"
2,COc1cc(C)ccc1OCC(=O)c1ccc2c(c1)N(CCCC(=O)NCC1CC1)C(=O)CO2,"inconclusive: 50.1 µM [inhibitor, partial curve, poor fit]"
3,O=C(NCc1ccccc1)c1ccc2c(c1)OCCN(c1ccccc1)C2,"inconclusive: 11.2 µM [inhibitor, full curve]"
4,COc1ccccc1CN1C[C@@H](C(=O)O)C[C@H](C(=O)NCc2ccccn2)C1,inactive
5,COc1cccc(CCC(=O)NCCC2CCN(C(=O)Nc3cccc(F)c3)CC2)c1,inactive
6,O=c1c2c(CO)c(-c3ccccc3)nn2ccn1Cc1ccccc1,"inconclusive: 89.1 µM [inhibitor, partial curve, poor fit]"
7,COc1ccc(N2CC(c3noc(-c4ccc(C(C)(C)C)cc4)n3)CC2=O)cc1 (configuration not stated),active: 44.7 µM
8,O=C(NCc1cccc(Cl)c1)c1nc2sccn2c1-c1ccc(C(F)(F)F)cc1,"inconclusive: 39.8 µM [inhibitor, full curve, poor fit]"
9,Cc1ccc(C(=O)NC2CCN(c3cc(-c4ccc(F)cc4)[nH]n3)C2)cc1 (configuration not stated),"inconclusive: 50.1 µM [inhibitor, partial curve, poor fit]"
10,COC[C@@H]1CN(C(=O)CCn2ccnc2)C[C@H]1c1ccncc1,inactive
11,O=C(c1cc(-c2ccc(Cl)cc2Cl)c2cccn2n1)N1CCCC1,"inconclusive: 50.1 µM [inhibitor, partial curve]"
12,C[S+](=O)([O-])c1ccc(-c2ncc3c(n2)OCCN(Cc2ccc(F)cc2F)C3=O)cc1,"inconclusive: 17.8 µM [inhibitor, full curve]"
13,CCc1ocnc1C(=O)N1CCCC(c2[nH]ncc2-c2ccc(F)cc2)C1 (configuration not stated),"inconclusive: 89.1 µM [inhibitor, single point]"
14,COc1ccc(C(=O)Nc2ncc(-c3cccc(N(C)C)c3)c3c2OCC3)cc1,active: 100 µM
15,Cc1cnc(-c2ccccc2)n1C1CCN(C(=O)Cc2cccc(F)c2)CC1,"inconclusive: 50.1 µM [inhibitor, partial curve, poor fit]"
16,COC(=O)N(C)Cc1cccc(N2CCN([S+](=O)([O-])c3c(Cl)cccc3Cl)CC2)c1F,active: 14.1 µM
17,CN1CCN(c2ncccc2CNC(=O)[C@H]2[C@@H]3C=C[C@@]4(CN(C)C(=O)[C@@H]24)O3)CC1,inactive
18,Fc1ccc(C2Cn3nnc(-c4nc(-c5ccc(C(F)(F)F)cc5)no4)c3CO2)cc1 (configuration not stated),inactive
19,COc1cccc(CNC(=O)CN2C(=O)NC(c3ccccc3Cl)C3=C2COC3=O)c1 (configuration not stated),"inconclusive: 70.8 µM [inhibitor, single point]"
20,CO[C@H]1C(=O)N(C2CCN(C(=O)Cc3c[nH]c4ccccc34)CC2)[C@H]1c1ccncc1,inactive
